# Results: the supplement of paper PMC4466236
# The full ranking holds about 33,000 sequences; the median of “E-score (dimensionless, -0.5 to 0.5)” is about -0.058, and the highest 2% start at about 0.35. Some of the results follow.
# Test system: MvaT
# Experiment: PBM 8-mer E-score (mean of HK and ME arrays) (E-score (dimensionless, -0.5 to 0.5)); higher = stronger relative binding preference; most listed sequences are background and not binding sites
# Description: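 Protein binding microarray: GST-tagged full-length MvaT (P. aeruginosa PAO1) bound to two universal double-stranded 60-mer arrays (ME and HK), each with a constant 25-mer primer and a variable 35-mer region covering all 8-mers. The 8-mer E-score (rank-based, range -0.5 to 0.5, >0.45 = specific binding) is the mean of the two arrays.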
row,Sequence,PBM 8-mer E-score
1,ATGAGGAG,-0.242
2,CCCGTCAC,-0.179
3,ATCGATGC,0.0149
4,CCGACTAG,-0.0959
5,AAATTTAT,0.384
6,CTTAATGA,0.0908
7,AGCGGCAT,-0.0757
8,GACGATAA,0.145
9,AGTATCAC,0.0376
10,GATCTTCC,-0.166
11,AATCACGG,-0.0534
12,GTCCAGGA,-0.138
13,GCATTTCC,-0.0511
14,TTCACCAA,0.18
15,CGGATGGA,-0.171
16,AATGATCT,-0.0643
17,GCCTTATA,0.188
18,AGGATTAT,0.193
19,CCAAAAGC,-0.105
20,CAGGCATC,-0.23
21,AGCATACC,-0.0477
22,ACAGTACC,0.0272
23,ACAACTCG,0.0983
24,ATCGAACC,-0.0363
25,CGTTTCAG,-0.0777

row,Sequence,PBM 8-mer E-score
1,AGCATGAG,-0.176
2,CATTTACC,0.152
3,CACAGTCA,-0.113
4,ACGTACCC,-0.128
5,AATATGTG,0.368
6,TCAGCGGA,-0.0835
7,GTGTGGGA,0.0582
8,CATTCATC,0.0494
9,CGAAAACG,-0.141
10,CGTCAAAG,-0.136
11,CCTTATAA,0.338
12,ATCGTGGC,-0.212
13,TGCAAAAA,0.109
14,GGGGATTA,-0.0867
15,ATTTCTCG,0.174
16,CCGGTTGA,-0.0358
17,ACGAGCGG,-0.271
18,GTACGGAC,-0.24
19,GAATTACC,0.151
20,GGCTGCCC,-0.243
21,GGCTGATA,-0.0182
22,AGGAGCGC,-0.259
23,ACAGGGGG,-0.216
24,AAATGGAT,0.103
25,ATCCCGGA,-0.0572

row,Sequence,PBM 8-mer E-score
1,CAACCAGC,-0.188
2,GCGCCAGC,-0.0869
3,CGAGTATC,0.0738
4,ACTTTCGC,0.0699
5,AACCAGGT,-0.111
6,AGGGCCGC,-0.285
7,GAAGTTCA,0.16
8,AACCGCGC,0.0275
9,AGGTGGAG,-0.207
10,CGATGCGA,-0.143
11,GAAACAAA,0.271
12,CTAGCTAG,-0.0718
13,AAAGAAAG,0.281
14,AGCGACCT,-0.0364
15,GCTAGTCC,-0.297
16,AATTCTCA,0.0749
17,AGACGACC,-0.202
18,AGCTCTGA,-0.129
19,AATAGCAT,0.191
20,CGTCCACG,-0.152
21,CAAGTAGC,-0.0211
22,ATAATTCG,0.228
23,GATCAATA,0.152
24,CTAACTGA,0.0161
25,CGGGCTAC,-0.163

row,Sequence,PBM 8-mer E-score
1,AGCTTTTA,0.163
2,ACGCGAAC,-0.0277
3,ACCATGGA,-0.142
4,GCGTGGAC,-0.192
5,CGTGTCTA,-0.129
6,GCGACGCA,-0.0675
7,TGTACTAA,0.17
8,AAGAAGAG,-0.027
9,CTCTGGGA,-0.112
10,AGTCCACC,-0.22
11,AGTGGGCA,0.0126
12,CGAGATAC,-0.0241
13,GTGGTCAA,0.0494
14,GAAATACA,0.0961
15,ACGCATGA,-0.132
16,CCCCGACA,-0.186
17,AATTCCGT,0.0241
18,CAATTCAC,0.0398
19,TGAGCACA,-0.0844
20,ACGTACCT,-0.184
21,CCTCACGC,-0.318
22,TGCCGCAA,0.0457
23,CTCACCAG,-0.163
24,ACCAAGTC,-0.141
25,CGGTGCAA,-0.135

row,Sequence,PBM 8-mer E-score
1,AGGAACAT,-0.142
2,TATGAGAA,0.061
3,CTCAGCTA,0.0433
4,AGAAACTA,0.221
5,AACATTAG,0.234
6,TACAAAAA,-0.0275
7,GCACAGGC,-0.253
8,CAGACGGC,-0.101
9,GACGTTGA,-0.199
10,CGGGCCGC,-0.275
11,AGCAGGCG,-0.287
12,ATTACCAG,0.195
13,ACATCTCA,0.0853
14,TTCTAGAA,0.134
15,ACAACTGG,0.0264
16,ACGGGTCC,-0.19
17,ACCGCGCG,-0.136
18,TATCCTGA,0.129
19,ATAAGACG,0.193
20,GATATCCA,0.035
21,ATCAAAAA,0.228
22,CGTGACTC,-0.196
23,CCCTCCAC,-0.234
24,CAGCAGGG,-0.234
25,CGTCACAC,-0.104

row,Sequence,PBM 8-mer E-score
1,ACGAAAGA,0.0583
2,CTCGTAAA,0.0756
3,CATGTTTC,0.203
4,TGATTGAA,0.00919
5,AGGCCCGA,-0.288
6,ATTTATCA,0.301
7,CGCCCTAG,-0.24
8,CACGTGGA,-0.121
9,AACTGTCC,-0.0476
10,ATGACGCG,-0.172
11,CTCACTTA,0.0555
12,AGACCGTA,-0.109
13,TTGAACAA,0.153
14,AAAGTGTA,0.198
15,TCGCTTAA,0.0456
16,ACTAGATC,-0.0531
17,ATGCGTGG,-0.225
18,ACCTAACG,-0.0378
19,ATCCGTGA,-0.0681
20,ATCTAAGG,-0.102
21,GACCTCGA,-0.0685
22,CCCGGCAG,-0.175
23,CAAGGATC,-0.31
24,CAGTGACA,-0.117
25,ATATAAAT,0.45

row,Sequence,PBM 8-mer E-score
1,AACCCAAA,0.0509
2,ACTAGCTG,-0.0453
3,GAGCGGCA,-0.0736
4,CAAGCCCC,-0.255
5,CCCGCGAC,-0.15
6,AGTTAGCG,0.0842
7,GTAACAGA,-0.0526
8,CGTTACAA,0.185
9,CACTTAGA,0.164
10,GGACTCAA,-0.172
11,ATAACGAG,0.242
12,GGAACGCA,-0.0472
13,CTTATGAC,0.0608
14,GAATTCGA,0.0572
15,CGTTATTC,0.24
16,AGCATGTA,0.14
17,GCTGAGAA,0.031
18,ACTTTTCC,0.0904
19,GGTATACC,-0.102
20,CACCGAGC,-0.273
21,GGGGACCA,-0.249
22,AGTGTTCC,-0.0184
23,CCATGCAC,-0.178
24,TATGAGCA,0.021
25,ATAGAGAG,0.188

row,Sequence,PBM 8-mer E-score
1,TGTTGCAA,0.234
2,CCTCACCG,-0.202
3,CCCCCGAC,-0.328
4,ACCGAGGT,-0.121
5,CGAATAAC,0.207
6,GTGTTCAA,0.0247
7,GAGCCAGC,-0.295
8,ACTTTAAA,0.404
9,AGACGTGG,-0.352
10,AGTGCTCA,-0.0133
11,AAAGCGGC,-0.11
12,CTCTCTTA,0.00753
13,CGAAGTTA,0.24
14,AAGTCCTC,-0.0822
15,CAAGCTCA,-0.129
16,AGCGGTGG,-0.209
17,CGATTATA,0.292
18,AATCCTGT,0.106
19,GGTCCAAC,-0.213
20,AATCGCGG,0.0231
21,GACTGAAC,0.0975
22,CGTCAGGA,-0.133
23,GATGTACA,0.098
24,ACCTGGTG,-0.132
25,AAAGGAGT,0.0119

row,Sequence,PBM 8-mer E-score
1,AGATGTAT,0.169
2,ACAGAATC,-0.129
3,CACCTGCC,-0.304
4,ACTGCGAC,-0.0469
5,ACACGTGA,-0.0971
6,TAACTCGA,0.0525
7,AACTTGTC,0.06
8,CAGTAGCG,-0.11
9,CTAGGTAA,0.0421
10,ACCGCTAG,-0.0522
11,AAACGAGG,-0.163
12,ACAGCTCT,-0.047
13,AATCTGCG,-0.045
14,AACAGTAA,0.226
15,ACTAGAGT,0.11
16,CCCTTTAC,-0.133
17,AAAAAGTA,0.154
18,ACTGTTAA,0.225
19,CTCTAGAG,0.00546
20,AGGAAAAG,-0.115
21,GTCTGTCA,-0.113
22,CCCTCTGA,-0.326
23,CATCGTCA,-0.121
24,GTGGGCCA,-0.137
25,GTTCAGCA,-0.0245

row,Sequence,PBM 8-mer E-score
1,ACGCCCGC,-0.224
2,AACTTTCG,0.255
3,GATGACAC,-0.0924
4,CAACGATG,-0.0854
5,AATGGATA,0.231
6,ATCGAGGC,-0.227
7,GGAAGTAC,0.108
8,CTATCCTC,-0.0982
9,ATATCGGC,0.177
10,TACCAGTA,0.0885
11,GTCCCGAC,-0.101
12,ACCGACGA,-0.0844
13,GTGCTGAA,-0.00218
14,GGGTGGAA,-0.131
15,GGTCGTAC,-0.143
16,TATTAAAA,0.41
17,GAAGACTC,-0.0651
18,CATTAGGA,-0.0108
19,CCCTTCCG,-0.317
20,ATATATCC,0.38
21,AGGTAGAT,-0.0384
22,ACCGCGGT,-0.134
23,ATTACAGC,0.168
24,AACGCGAT,0.0116
25,ATTAGAAT,0.188

row,Sequence,PBM 8-mer E-score
1,CGCCAGAG,-0.218
2,CTGCAAAA,0.0192
3,ACGCATTG,-0.0106
4,GATCGTAA,0.0333
5,AAAAGATG,0.107
6,CAGAACCA,-0.0941
7,CCGAGATC,-0.206
8,AAAACCTT,0.103
9,GACAAGAA,-0.0203
10,CCCAACTC,-0.0484
11,CAAGGTTC,-0.183
12,GACGTCGC,-0.221
13,CATGGGCC,-0.149
14,ACTTCGTA,0.103
15,AGCGTCAG,-0.233
16,CCTGATGA,-0.121
17,AAGAATCG,0.0557
18,GACAACGC,-0.147
19,ACTTACCC,0.00851
20,GGGGATGA,-0.216
21,CCCACACA,0.059
22,ACGACCTG,-0.164
23,TAAGCCGA,-0.0711
24,AAGTGAGC,-0.042
25,ACTACCTC,-0.0495

row,Sequence,PBM 8-mer E-score
1,GTAAGCTA,-0.0635
2,CAAACAAC,0.108
3,ATAAACCC,0.135
4,ACTTCTGA,0.23
5,ACCTACCG,-0.236
6,CGCTGAAG,-0.192
7,CCGTTGCA,-0.14
8,ACGTGCAG,-0.108
9,CAATTGAA,0.206
10,GTTATGAA,0.17
11,CTGGATGC,-0.15
12,AACTCCTT,-0.0055
13,GAGTCATC,-0.278
14,ATGAAGGA,-0.101
15,ACCTCGCG,-0.226
16,CTCTTTGA,-0.0339
17,GCCACCCA,-0.102
18,ATCAATTG,0.279
19,ATTATCGG,0.224
20,GGGAGTCA,-0.128
21,ACCCCGGG,-0.285
22,GCTCCATA,-0.0313
23,CGTGCTCC,-0.227
24,CTGCAAGA,0.0151
25,ATAACCAT,0.159

row,Sequence,PBM 8-mer E-score
1,ACCCCATG,-0.0913
2,GACAGAAC,-0.0903
3,GACTGACA,-0.171
4,AAATCCGT,-0.176
5,GACTCTCC,-0.337
6,CAAAGAAA,0.14
7,TTCCGGAA,0.0697
8,CTACCGGC,-0.156
9,ACCTTGCG,-0.0997
10,AGAGTCCA,-0.28
11,ATTCGGTG,-0.00558
12,AAGCTACT,-0.143
13,AAAGTTAG,0.353
14,ATGTCGCC,-0.205
15,CATACCAG,-0.0357
16,GCTGGTTA,0.0965
17,ATATGAAG,0.211
18,CACTAGCC,-0.269
19,ATGTGCAA,-0.0709
20,CACAAAAA,0.117
21,AACCGCCT,-0.233
22,ACGATTAT,0.245
23,AGCAGGTG,-0.242
24,AACAGCTC,-0.0832
25,GCGCCCCA,-0.311

row,Sequence,PBM 8-mer E-score
1,TAAGTAAA,0.339
2,AGGAAATG,0.0162
3,ATTTTGAG,0.134
4,CGGTCACC,-0.257
5,AGCGGGCA,-0.124
6,CAGTTGCG,-0.0888
7,AAGCTAAA,0.0847
8,ACAGTTTG,0.0594
9,CCGTACAA,0.0642
10,CGAGCCAG,-0.276
11,ACACTGGT,-0.129
12,ATAACGTG,0.167
13,AATCCACC,-0.062
14,ACTGTACG,-0.0437
15,CAAGCCAG,-0.178
16,AGCCTATC,-0.068
17,CAAATGGA,0.0224
18,GGTCGGGA,-0.309
19,CTCATTCC,-0.204
